Data published in the supplement of paper PMC10126150.
Sequences with one replicate were seen in a single cluster, so their values are uncertain.

System: ATP
Test: switch fluorescence ratio, 500 uM ATP over buffer (Cy3 cluster intensity, sum of 5 cycles each) (fold (ratio)); higher = stronger signal-on switching upon ATP binding; sequences stand for … in TCGTCGGCAGCGTCAGATGTGTATAAGAGACAGTTTTTTTTTTTTTTTTTTTTTTTTT…TC
Conditions: aptamer strand: ATP DNA aptamer (quencher-CACCTGGGGGAGTATTGCGGAGGAAGG + anchor), 100 nM annealed; ATP concentration: 500 uM; one replicate
Outline: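 Clusters carrying Cy3-labelled switching strands on a modified Illumina MiSeq flow-cell were annealed to 100 nM quencher-labelled ATP aptamer and imaged in selection buffer. They were imaged again after 15 min with 500 uM ATP at 22 °C, over five buffer/ATP cycles with NaOH stripping and re-annealing in between. For each cluster, the fluorescence ratio is the summed Cy3 intensity of the target cycles divided by that of the buffer cycles, averaged per switch-domain sequence. Clusters outside 100-1000 RFU were left out.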
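Further: ATP exposure 15 min at 22 °C before imaging.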

Row | Sequence | switch fluorescence ratio
1 | GCCTACTCGT | 1.01
2 | GTGGACTCGA | 1.02
3 | CCTCGATAGG | 1.06
4 | CTGGCCATAT | 1.18
5 | TCGTCGTTAC | 1.62
6 | CACCGCTTCT | 1.74
7 | TGGCCCTTCG | 1.06
8 | GAATTGCGTA | 0.996
9 | AAGCGTGTCC | 0.993
10 | AAGCATGAGA | 1.03
11 | AACAATTGGT | 0.994
12 | GCCTGGATGG | 0.996
13 | ACCCTCTTCT | 1.02
14 | CCGGCTTGGG | 1.02
15 | TTTGTGTAAC | 0.989
16 | ACTAGGGTGT | 1.07
17 | TAAGCGTCTA | 0.992
18 | AGTTTAGCCC | 0.975
19 | GGTTCAACCG | 1.05
20 | ACGTGTCGTG | 0.957
21 | CAGTTGGAGG | 1.01
22 | AAATTATATT | 1
23 | AGTTTGCTAT | 1.03

Row | Sequence | switch fluorescence ratio
24 | TGGGGTACCC | 1.01
25 | ATAACTCAGG | 1.11
26 | AGGGTGTATC | 1.01
27 | AGGTAGCCAT | 0.996
28 | GAACTTGAAA | 0.967
29 | GGTAATGATA | 1.02
30 | TCGATACTGC | 1.09
31 | CGGTGTTCCC | 0.995
32 | GAATTAGTCG | 0.989
33 | GCCCAACGCG | 1.01
34 | TTGGAACGCT | 1
35 | CCTCCGCCGT | 1.4
36 | CCCTGTCTGG | 1.02
37 | ATACCGTGT | 0.997
38 | CTTCCTGTTG | 1.09
39 | ATCAATAGGG | 0.964
40 | GGCACAAGGA | 1
41 | TCATCCTTTT | 0.989
42 | CTCTCTGTCA | 1.15
43 | CAGGTCCCC | 1.01
44 | GGCTCACCGC | 1.07
45 | TATCAGGAGT | 0.97
46 | CGGGCTGGGA | 1.02

Row | Sequence | switch fluorescence ratio
47 | CAAGTCTACT | 0.962
48 | CGTGACTCG | 0.955
49 | GTATGAACAG | 0.959
50 | GAAGTATGC | 1.05
51 | TATGACCTGG | 0.9
52 | ATAGTATAAA | 0.99
53 | TAATTTCGGA | 0.98
54 | TGAACTGTCC | 1.2
55 | CAGTTGCACT | 0.982
56 | GACATCATAG | 0.999
57 | GTAGAAATTA | 1
58 | TTCGGTCCGG | 0.975
59 | TGCTAGTATA | 0.917
60 | CGGAAGGAGA | 1.03
61 | GCGACCCTGT | 1.07
62 | AGGTGGATCG | 0.986
63 | TAGGAGTTCA | 0.994
64 | ATCACCTAGC | 1.08
65 | AATAAGTTGC | 0.983
66 | CACGACTTTA | 1.03
67 | TTGGTTAAGG | 1.03
68 | GGCACTGGGA | 0.995
69 | AAGCCATCGT | 1.07

Row | Sequence | switch fluorescence ratio
70 | TCCAAAATGA | 1.07
71 | ACTCTTAGCT | 0.963
72 | GGAGCGCGGA | 1.05
73 | CAGTCTACGG | 0.955
74 | TACTCACACG | 1.3
75 | GACAAGCAGT | 1.24
76 | AGTTCGGCAT | 0.956
77 | TTTTGGGAGA | 1.02
78 | GCTCGTGGTT | 1.02
79 | GCTGTGAGGG | 1
80 | TTAATTGTAG | 0.989
81 | CCGATCTGAA | 1.07
82 | GTCGCGCTAG | 0.977
83 | GAGCGAGTCG | 0.987
84 | ACCGCACTT | 1.57
85 | TGCCAAGTTT | 1.01
86 | GGCCGGCGTA | 0.99
87 | GGCACGGTGG | 1
88 | TAACCAGGTA | 1.12
89 | AGTAGCTATA | 1.12
90 | GCGCTCTACT | 1.72
91 | GCTTTACGCC | 0.994
92 | AAATGCGGTC | 1.01

Row | Sequence | switch fluorescence ratio
93 | TTCGTAGAGG | 0.979
94 | GAAGGGGGT | 0.983
95 | GGTTTATCGC | 1.01
96 | TATACAAATA | 1.03
97 | CCAAACACTG | 0.997
98 | ATGCTTGTCA | 0.976
99 | GGTATAGCCT | 0.958
100 | GACGTGATCG | 1.01
101 | CCGAGATGAG | 1.08
102 | CTTAGGGGCT | 0.961
103 | CCTGTAAAGG | 1.02
104 | CCTTCTCGTA | 1.07
105 | TCTATTCGTG | 0.973
106 | AGAATTAACG | 0.932
107 | ATAGAAAAGT | 1.03
108 | GTAGAGG | 1.03
109 | CCTGGACCCC | 1.12
110 | TCCGAGAATA | 1.66
111 | CCACCTGACC | 1.72
112 | CCATATAACC | 0.978
113 | TGGCTAAAGA | 0.976
114 | CGTACCAGAT | 1
115 | GAAGTCGCTA | 1.03

Row | Sequence | switch fluorescence ratio
116 | CAGGCGATTC | 1.21
117 | AGTTCCATAA | 0.98
118 | GGGAATTCAT | 0.982
119 | TTTTGCACGT | 1.01
120 | GAATATGCTC | 1.05
121 | TTGCCTCGC | 0.995
122 | CGATGAAAGT | 0.957
123 | TACTACGCTT | 3.84
124 | ACGTGTGCG | 0.89
125 | AGACCAAGCG | 0.906
126 | AGAAGGAAGG | 1.03
127 | GGTATATTCG | 1.03
128 | GGGGACGCAC | 1.66
129 | GATAGGCTCC | 1.02
130 | TTACGTTGGC | 1.05
131 | TACCCACCGA | 1.34
132 | GGTTGTCCCT | 1.01
133 | TGAGCGTTGA | 0.988
134 | TGCATTGTGT | 0.992
135 | TTATAAGTT | 0.954
136 | GTTGGATACT | 0.997
137 | CCGCGGACAT | 1.02
138 | ACCACGGCGG | 1.03

Row | Sequence | switch fluorescence ratio
139 | GTGTGTCCAT | 1.05
140 | TCCTGGCGCT | 1.25
141 | TCGCATCGT | 1.04
142 | CCGATCTCTG | 1.09
143 | GGAGGGGTTC | 0.961
144 | ATCGTATGTG | 1.12
145 | AGTATATTTG | 1.04
146 | CGTACCCGC | 1
147 | GATCCACCAT | 1.07
148 | TCGCATCTAA | 1.13
149 | ATAATTTTTA | 0.984
150 | AGGCCGTGTG | 1.05
151 | AATTTGAGTT | 0.977
152 | ACCTTTTCTG | 1.03
153 | GCCACATAGA | 0.991
154 | GGCTTCAGTG | 1.01
155 | TCGTTGCATC | 1.03
156 | TTGCCCCAT | 1.03
157 | ATGTTTTCGC | 0.962
